Structures can show the parent of a compound that is named as a salt. Where two headings read alike, the source gives them in different places. At least one peptide structure holds a part that was inferred or is arguable (an end, a ring closure or a residue). Some compounds share one wording; it may come from a single statement. *1 amine or outer side, *2 acyl side, *3 side chain or, on linkers, in order; H or OH if unused. Where a SMILES comes first, the peptide text is derived from it. [ ]: non-standard residue; d: D form. The star is where a group is joined. Phe(4-N(CH2CH2Cl)2) = N[C@@H](Cc1ccc(N(CCCl)CCCl)cc1)C(=O)O; X1 = O=C([C@H](Cc1cccc(N(CCCl)CCCl)c1)N[*:1])[*:2]; X2 = CC(C)C[C@@H](CN[C@@H](CC(C)C)C(N)=O)N*; pGlu = O=C1CC[C@@H](C(=O)O)N1; Boc = CC(C)(C)OC(=O)*
Legend:
[1] = tested on: Swiss 3T3 fibroblasts; test: Inhibition of BBS-induced [H3]thymidine incorporation (given with BBS or as pre-treatment); assay type: cell-based, mouse
[2] = tested on: p115 protein associated with the bombesin receptor complex; test: Phosphorylation of the p115 protein associated with the bombesin receptor; assay type: cell-based
Protocol: Mitogenic effect of bombesin and its analogues were also evaluated as activation of the proteintyrosin kinase that phosphorylates a 115 KD protein (p115) associated with the bombesin receptor complex (D. Cirillo et al. (1986) Mol. Cell. Biol. 6, 4641-4649) (Table 3).

[3] = tested on: Swiss 3T3 fibroblasts; test: Inhibition of BBS-induced [H3]thymidine incorporation (given with BBS or as pre-treatment); assay type: cell-based, mouse; settings: for % inhibition in the presence of 25 nM BBS (A): A = analogues given in combination with BBS; for % inhibition in the presence of 25 nM BBS (B): B = cells pretreated with analogues, washed, left at 37° C. for 24 h, then challenged with BBS
Protocol: (§1) The effect on mitogenesis was determined in quiescent and confluent Swiss 3T3 cells maintained in serum free medium (A. N. Corps et al (1985) Biochem J. 231, 781-785). In a first set of experiments, analogues were given alone or in combination with bombesin. In a second set of experiments, cells were pre-treated with the alkylating peptides, washed, left at 37° C. for 24 hours and then challenged with bombesin. In both cases, DNA synthesis was evaluated as [H^3 ]thymidine incorporation (Table 2).

[4] = tested on: Swiss 3T3 fibroblasts; test: [H3]thymidine incorporation (mitogenesis), analogues given alone; assay type: cell-based, mouse; settings: for [H3]thymidine incorporation, fold increase over basal value: analogue alone; for Effect on thymidine incorporation (in words): given alone
Protocol: as §1

[5] = given together / contemporaneously with BBS
[6] = given 24 hrs before the BBS addition

Row | SMILES | Antagonism of BBS (in words) [1] | Minimal active dose, p115 phosphorylation [2] [nM] | % inhibition in the presence of 25 nM BBS (A) ([3]; 500 nM) [%] | % inhibition in the presence of 25 nM BBS (B) ([3]; 500 nM) [%] | % inhibition in the presence of 25 nM BBS (A) ([3]; 5000 nM) [%] | % inhibition in the presence of 25 nM BBS (B) ([3]; 5000 nM) [%] | Antagonism of BBS (in words) [3, 5] | [H3]thymidine incorporation, fold increase over basal value ([4]; 500 nM) | [H3]thymidine incorporation, fold increase over basal value ([4]; 5000 nM) | Effect on thymidine incorporation (in words) [4] | Antagonism of BBS (in words) [3, 6] | [H3]thymidine incorporation, fold increase over basal value ([4]; 5 nM) | [H3]thymidine incorporation, fold increase over basal value ([4]; 50 nM)
1 | CC(C)[C@H](NC(=O)[C@H](C)NC(=O)[C@H](Cc1c[nH]c2ccccc12)NC(=O)[C@H](CCC(N)=O)NC(=O)[C@H](Cc1ccc(N(CCCl)CCCl)cc1)NC(=O)OC(C)(C)C)C(=O)NCC(=O)O [III, Boc-pMel-Gln-Trp-Ala-Val-Gly-OH] (Boc-[Phe(4-N(CH2CH2Cl)2)]QWAVG-OH) | potent antagonists | > 10000 | 0 | 27 ± 14 | 64 ± 10 | 39 ± 7 | potent antagonists | 1.2 | 1.3 | did not increase incorporation of thymidine | – | – | –
2 | CC(C)[C@H](NC(=O)[C@H](C)NC(=O)[C@H](Cc1c[nH]c2ccccc12)NC(=O)[C@H](CCC(N)=O)NC(=O)[C@H](Cc1cccc(N(CCCl)CCCl)c1)NC(=O)OC(C)(C)C)C(=O)NCC(=O)O [IX, Boc-mMel-Gln-Trp-Ala-Val-Gly-OH] (Boc-[X1]QWAVG-OH) | – | – | 0 | 17 ± 4 | 57 ± 13 | 22 ± 3 | – | 1 | 1 | – | – | – | –
3 | CSCC[C@H](NC(=O)[C@H](CC(C)C)NC(=O)[C@H](Cc1c[nH]cn1)NC(=O)CNC(=O)[C@@H](NC(=O)[C@H](C)NC(=O)[C@H](Cc1c[nH]c2ccccc12)NC(=O)[C@H](CCC(N)=O)NC(=O)[C@H](Cc1ccc(N(CCCl)CCCl)cc1)NC(=O)OC(C)(C)C)C(C)C)C(N)=O [VI, Boc-pMel-Gln-Trp-Ala-Val-Gly-His-Leu-Met-NH2] | – | 1 | 3 ± 2 | 21 ± 3 | 20 ± 3 | 34 ± 5 | weak antagonists | 7.0 | 6.6 | increased thymidine incorporation | potent antagonists | 4.1 | 8.0
4 | CSCC[C@H](NC(=O)[C@H](CC(C)C)NC(=O)[C@H](Cc1c[nH]cn1)NC(=O)CNC(=O)[C@@H](NC(=O)[C@H](C)NC(=O)[C@H](Cc1c[nH]c2ccccc12)NC(=O)[C@H](CCC(N)=O)NC(=O)[C@@H](N)Cc1ccc(N(CCCl)CCCl)cc1)C(C)C)C(N)=O [VII, H-pMel-Gln-Trp-Ala-Val-Gly-His-Leu-Met-NH2.2 HCl] | – | 1 | 6 ± 2 | 57 ± 14 | 17 ± 4 | 61 ± 9 | weak antagonists | 4.3 | 4.8 | increased thymidine incorporation | potent antagonists | 2.1 | 4.7
5 | CSCC[C@H](NC(=O)[C@H](CC(C)C)NC(=O)[C@@H](Cc1ccccc1)NC(=O)CNC(=O)[C@@H](NC(=O)[C@H](C)NC(=O)[C@H](Cc1c[nH]c2ccccc12)NC(=O)[C@H](CCC(N)=O)NC(=O)[C@H](Cc1ccc(N(CCCl)CCCl)cc1)NC(=O)OC(C)(C)C)C(C)C)C(N)=O [VIII, Boc-pMel-Gln-Trp-Ala-Val-Gly-phe-Leu-Met-NH2] | potent antagonists | – | 28 ± 6 | 56 ± 3 | 37 ± 4 | 77 ± 11 | potent antagonists | 1.2 | 1.2 | did not increase incorporation of thymidine | – | – | 1.1
6 | CSCC[C@H](NC(=O)[C@H](CC(C)C)NC(=O)CNC(=O)[C@@H](NC(=O)[C@H](C)NC(=O)[C@H](Cc1c[nH]c2ccccc12)NC(=O)[C@H](CCC(N)=O)NC(=O)[C@@H](NC(=O)CNC(=O)[C@H](CC(C)C)NC(=O)[C@H](Cc1cccc(N(CCCl)CCCl)c1)NC(=O)OC(C)(C)C)[C@@H](C)O)C(C)C)C(N)=O [XIV, Boc-mMel-Leu-Gly-Thr-Gln-Trp-Ala-Val-Gly-Leu-Met-NH2] (Boc-[X1]LGTQWAVGLM-NH2) | potent antagonists | > 1000 | 6 ± 2 | 0 | 14 ± 2 | 32 ± 8 | potent antagonists | 1.3 | 1.2 | did not increase incorporation of thymidine | – | – | 1.2
7 | CSCC[C@H](NC(=O)[C@H](CC(C)C)NC(=O)[C@H](Cc1c[nH]cn1)NC(=O)CNC(=O)[C@@H](NC(=O)[C@H](C)NC(=O)[C@H](Cc1c[nH]c2ccccc12)NC(=O)[C@H](CCC(N)=O)NC(=O)[C@@H](N)Cc1cccc(N(CCCl)CCCl)c1)C(C)C)C(N)=O [XIX, H-mMel-Gln-Trp-Ala-Val-Gly-His-Leu-Met-NH2.2HCl] | – | 4 | 19 ± 7 | 54 ± 1 | 9 ± 5 | 62 ± 6 | weak antagonists | 4.3 | 4.4 | increased thymidine incorporation | potent antagonists | 1 | 4.1
8 | CSCC[C@H](NC(=O)[C@H](CC(C)C)NC(=O)[C@H](Cc1c[nH]cn1)NC(=O)CNC(=O)[C@@H](NC(=O)[C@H](C)NC(=O)[C@H](Cc1c[nH]c2ccccc12)NC(=O)[C@H](CCC(N)=O)NC(=O)[C@H](Cc1cccc(N(CCCl)CCCl)c1)NC(=O)OC(C)(C)C)C(C)C)C(N)=O [XVIII, Boc-mMel-Gln-Trp-Ala-Val-Gly-His-Leu-Met-NH3.CF3 COOH] | – | 10 | 4 ± 2 | 3 ± 2 | 3 ± 1 | 14 ± 3 | weak antagonists | 7.3 | 5.4 | increased thymidine incorporation | potent antagonists | 5.4 | 7.0
9 | CSCC[C@H](NC(=O)[C@H](CC(C)C)NC(=O)CNC(=O)[C@@H](NC(=O)[C@H](C)NC(=O)[C@H](Cc1c[nH]c2ccccc12)NC(=O)[C@H](CCC(N)=O)NC(=O)[C@H](Cc1cccc(N(CCCl)CCCl)c1)NC(=O)OC(C)(C)C)C(C)C)C(N)=O [XX, Boc-mMel-Gln-Trp-Ala-Val-Gly-Leu-Met-NH2] (Boc-[X1]QWAVGLM-NH2) | potent antagonists | > 500 | 39 ± 1 | 0 | 68 ± 8 | 35 ± 3 | potent antagonists | 1.5 | 1.2 | did not increase incorporation of thymidine | – | – | 1.0
10 | CC(C)C[C@@H](CN[C@@H](CC(C)C)C(N)=O)NC(=O)[C@H](Cc1c[nH]cn1)NC(=O)CNC(=O)[C@@H](NC(=O)[C@H](C)NC(=O)[C@H](Cc1c[nH]c2ccccc12)NC(=O)[C@H](CCC(N)=O)NC(=O)[C@H](CC(N)=O)NC(=O)CNC(=O)[C@H](CC(C)C)NC(=O)[C@H](CCCNC(=N)N)NC(=O)[C@H](CCC(N)=O)NC(=O)[C@@H]1CCC(=O)N1)C(C)C [[Leu^ 13 .psi. (CH2 --NH)Leu^14]BBS, reference compound] ([pGlu]QRLGNQWAVGH-X2) | – | – | 29 ± 10 | 0 | 56 ± 4 | 0 | – | 1.0 | 1.0 | – | – | – | –

From patent US5100873A, “Irreversible peptide ligands for bombesin receptors, their use, and process for making the same” (priority 1988, dated 1992)
